Assay results as given in PubChem BioAssay AID1347417 (National Center for Advancing Translational Sciences (NCATS), 2020).
Among all 120,000 compounds or so, about 5,300 (4.4%) were called active. The shares of active, inactive and inconclusive entries below differ from those in the screen. Calls follow the shape of the dose curve; as a rule, active = well fitted inhibition curve with a large enough effect; inconclusive = small, poorly fitted or top-dose-only effect; inactive = no such curve, though single readings can be large or run the other way. Potencies of inconclusive entries are doubtful fits and often do not repeat.

test: qHTS Primary assay for Inhibitors of Plasmodium falciparum Dd2 growth in vitro; also: nearly all actives have a fitted effect of over 65% in size;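 as to activity, negative = inhibition: plate controls were DMSO vehicle for no effect and reference drug for full effect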; details: P. falciparum Dd2 growth, SYBR Green, 72 h; activity, negative = inhibition: at 28.9 µM (top of the series) unless noted; series mostly up to 28.9 µM
In short: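 Readout: SYBR Green fluorescence, 485 nm excitation, 535 nm emission, after ~16 h lysis at 37C. Before that, Dd2-infected red cells (2.5% hematocrit) grew 72 h with compound, 29 uM top final concentration.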
Potency is read from the fitted curve at half-maximal effect; tags tell the direction and shape of the fitted curve.

Structure (SMILES)	Potency	activity, negative = inhibition	outcome
COCC(=O)Nc1ccc(-c2noc([C@@H]3CCCN3C)n2)cn1	inconclusive: 11.2 µM [inhibitor, single point]		
CCn1c(CO)nnc1C1CC(NC(=O)c2oc3cc(OC)ccc3c2C)C1 (stereo unspecified)	inconclusive: 3.16 µM [inhibitor, partial curve, poor fit]		
O=C(Nc1cc(F)ccc1F)N1CCCC(Cn2c(C3CC3)nc3cccnc32)C1 (stereo unspecified)		inactive: -3.3%	
COc1cc(-c2[nH]ncc2CN2CCCC2c2ccccn2)cc(OC)c1OC (stereo unspecified)		inactive: -6.24%	
Cc1c(C(=O)Nc2ccc(F)cc2F)sc2nc3n(c(=O)c12)N=C(c1ccccc1)CS3	inconclusive: 10 µM [inhibitor, partial curve, poor fit]		
CCCCOc1ccc(Cn2c(=O)sc3ccccc32)cc1	inconclusive: 12.6 µM [inhibitor, partial curve, poor fit]		
CCc1ccc(NC(=O)c2nn(-c3ccc(OC)cc3)c(=O)c3c2c2ccccc2n3C)cc1	inconclusive: 17.8 µM [inhibitor, single point]		
CCc1ccc(Oc2c(C(F)(F)F)oc3c(CN4CCCC(C)C4)c(O)ccc3c2=O)cc1 (stereo unspecified)	inconclusive: 0.631 µM [inhibitor, full curve, poor fit]		
COc1ccc(CN2CCOC[C@H](Oc3ccccc3)C2)cc1	active: 7.08 µM		
COc1ccc(C2(C(=O)N3CCCC(c4nc(-c5ccccc5)no4)CCNC(=O)CC3)CC2)cc1 (stereo unspecified)	active: 7.94 µM		
O=C(NC1CCCC1)O[C@H]1COCCN(c2nc3ccccc3o2)C1	inconclusive: 2.82 µM [inhibitor, full curve]		
Cc1ccc2nc(COCC(=O)N3CCC4(CCCN(C)C4=O)C3)[nH]c2c1 (stereo unspecified)		inactive: 17.5%	
COc1ccc(-c2cc(-c3cccc(CO)c3)cn3cncc23)cc1	inconclusive: 2.82 µM [inhibitor, full curve]		
CN(C)CCN(C)[C@H]1[C@@H]2OC[C@@H](O2)[C@@H](NCc2ccc(OC(F)(F)F)cc2)[C@@H]1O	inconclusive: 31.6 µM [inhibitor, single point]		
Nc1c(-c2nc(-c3ccc(F)cc3)cs2)c2ccccn2c1C(=O)c1ccc2c(c1)OCO2	inconclusive: 17.8 µM [inhibitor, single point]		
O=C(NCC1Cn2cccc2C(=O)N1Cc1ccccc1)Nc1ccccc1F (stereo unspecified)	inconclusive: 12.6 µM [inhibitor, partial curve, poor fit]		
CC(C)CCNC(=O)N1CCCC(c2noc(COc3ccccc3)n2)C1 (stereo unspecified)	inconclusive: 12.6 µM [inhibitor, partial curve, poor fit]		
CCOC(=O)c1ccc(OC(=O)c2cn(-c3cccc(OC)c3)c(=O)c3ccccc23)cc1	inconclusive: 11.2 µM [inhibitor, single point]		
CCc1ccc2c(c1)NC(c1ccc(OC)cc1)=NC(c1ccncc1)=N2	inconclusive: 17.8 µM [inhibitor, single point]		
COc1cccc(CCC(=O)N2CCN(c3cc(-c4ccccc4)[nH]n3)CC2)c1		inactive: -12.2%	
COc1cc(/C=C/c2nc(C#N)c(N3CCC(C)CC3)o2)cc(OC)c1OC	inconclusive: 17.8 µM [inhibitor, single point]		

Structure (SMILES)	Potency	activity, negative = inhibition	outcome
CC(C)CCN(C(=O)Nc1ccc(Cl)c(Cl)c1)C(C)c1cccs1 (stereo unspecified)	active: 10 µM		
O=C(Cn1cc(C(=O)c2ccccc2)c2ccccc21)Nc1ccc(Br)cc1	inconclusive: 12.6 µM [inhibitor, single point]		
COc1cccc(CN2CCCOCCNC(=O)CC2)c1	inconclusive: 2.24 µM [inhibitor, partial curve, poor fit]		
COc1cccc(C(=O)N2CCC(n3cc(-c4nc(-c5ccccc5)no4)nn3)CC2)c1OC		inactive: 332%	
Cc1noc(C)c1C(=O)N1Cc2ccccc2CC2(CCN(CC3CCNC3)CC2)C1 (stereo unspecified)		inconclusive: -33.8% [inhibitor]	
CCNc1ncnc2sc3c(c12)CCN(Cc1ccco1)C3	inconclusive: 2.51 µM [inhibitor, partial curve, poor fit]		
O=C(CC1COCCN1C(=O)c1cc(F)ccc1F)NCc1cccnc1 (stereo unspecified)		inactive: 8.75%	
O=C(c1ccoc1)N1CCC2(CC1)CC(OCC1CC1)CCO2 (stereo unspecified)		inactive: -17.8%	
C[S+](=O)([O-])N1CC2ON=C(C(=O)NCCc3ccc(Cl)cc3)C2C1 (stereo unspecified)		inactive: 6.23%	
O=C(C1CC1)N1CCC(Cc2noc(-c3ccccc3)n2)C1 (stereo unspecified)	inconclusive: 17.8 µM [inhibitor, single point]		
Cc1ccc2[nH]c(=O)c3cc(C(=O)NCCc4ccc(Cl)cc4)sc3c2c1	inconclusive: 14.1 µM [inhibitor, partial curve, poor fit]		
O=C(c1ccc2c(c1)N(Cc1cccc(Cl)c1)C(=O)c1ccccc1S2)N1CCOCC1	inconclusive: 20 µM [inhibitor, single point]		
CC(C)CNC(=O)c1cc2n(n1)CC(c1ccc3c(c1)OCO3)OC2 (stereo unspecified)			inactive
CCC1(CO)CCCN(CCCOc2ccc(C(N)=O)cc2)C1 (stereo unspecified)		inactive: -7.34%	
O=C(C1CCOCC1)N1CCOC[C@H](Oc2ccc(C(F)(F)F)cc2)C1	inconclusive: 3.55 µM [inhibitor, partial curve]		
CCn1c2ccccc2c2cc(CN3CCN(Cc4ccccc4C)CC3)ccc21	inconclusive: 17.8 µM [inhibitor, single point]		
COc1cccc(N2CCN(C(=O)c3cc4c(s3)CN(C3CCCC3)C4)CC2)c1	inconclusive: 12.6 µM [inhibitor, partial curve, poor fit]		
Cc1ccc(NC(=O)Cn2c(=O)n(Cc3ccc4c(c3)OCO4)c(=O)c3ccc(C(=O)NC4CCCCC4)cc32)c(C)c1	inconclusive: 1.58 µM [inhibitor, partial curve, poor fit]		
CC(=O)Nc1cccc(-c2ccc3c(n2)CN(Cc2ccccc2)C(=O)CO3)c1	inconclusive: 31.6 µM [inhibitor, single point]		
Cc1nn(-c2ccccc2)c(Oc2ccccc2F)c1CCC(=O)N1CCSCC1	inconclusive: 12.6 µM [inhibitor, partial curve, poor fit]		
